For one experiment, the system named is H1975 OR16. Put plainly: CD70 ADC relative cell viability. Format: cell-based. The text has this:
(§1) FIG. 14A-C. CD70 antibody-drug conjugates (ADCs) target CD70+ EGFR TKI resistant cell in vitro.
(§2) To determine whether CD70 antibody drug conjugates (ADCs) are a valid approach for targeting EGFR TKI resistant cells, the inventors treated H1975 cells (CD70 low and EGFR TKI sensitive) and H1975 OR5 and H1975 OR16 (both EGFR TKI resistant and CD70 high) with increasing concentrations of the CD70 ADCs cuzatuzumab-MMAE or vorsetuzumab-MMAE. […] The inventors further observed an additive anti-tumor cell effect when osimertinib was combined with anti-CD70 ADCs. (FIG. 15).

The subject of a further experiment is H1975 OR5. Put plainly: CD70 ADC relative cell viability. Format: cell-based.
From the text: as §1, §2

B1: cuzatuzumab-MMAE (conjugate, chains of the INN, looked up)
heavy: EVQLVESGGGLVQPGGSLRLSCAASGFTFSVYYMNWVRQAPGKGLEWVSDINNEGGTTYYADSVKGRFTISRDNSKNSLYLQMNSLRAEDTAVYYCARDAGYSNHVPIFDSWGQGTLVTVSS[no letters for human IgG1 constant region]
light: QAVVTQEPSLTVSPGGTVTLTCGLKSGSVTSDNFPTWYQQTPGQAPRLLIYNTNTRHSGVPDRFSGSILGNKAALTITGAQADDEAEYFCALFISNPSVEFGGGTQLTVLGQPKAAPSVTLFPPSSEELQANKATLVCLISDFYPGAVTVAWKADSSPVKAGVETTTPSKQSNNKYAASSYLSLTPEQWKSHRSYSCQVTHEGSTVEKTVAPTECS
modifications: MMAE payload
B1: the “anti-tumor cell activity (relative cell viability)” value in the experiment on H1975 OR16 (H1975 OR16, CD70 high, EGFR TKI resistant, FIG. 14) is “anti-tumor cell activity”; in the experiment on H1975 OR5 (H1975 OR5, CD70 high, EGFR TKI resistant, FIG. 14), “anti-tumor cell activity”. For the same molecule, the “sensitivity to CD70 ADC versus H1975 parental cells” value in the experiment on H1975 OR16 (H1975 OR16 vs H1975 parental (CD70 low), increasing concentrations, FIG. 14 and 16) is on record as “more sensitive”; with H1975 OR5 (H1975 OR5 vs H1975 parental (CD70 low), increasing concentrations, FIG. 14 and 16), “more sensitive”.

The record behind these values is patent US20220265847A1, “METHODS AND COMPOSITIONS FOR TREATING NON-SMALL CELL LUNG CANCER” (Board of Regents, The University of Texas System, priority 2019, published 2022).
